Data taken from publication PMC4336329 (PLoS ONE, 2015).
The campaign covered roughly 310,000 compounds. About 2,200 (0.71%) showed an effect of 50% or more. Effects have a minus sign here. The list shows a part of the results.

target: human ether-à-go-go-related gene (hERG) potassium channel (human, UniProt Q12809); test: primary screen, population patch clamp on CHO cells stably expressing hERG
Sequence (Q12809 whole entry, looked up): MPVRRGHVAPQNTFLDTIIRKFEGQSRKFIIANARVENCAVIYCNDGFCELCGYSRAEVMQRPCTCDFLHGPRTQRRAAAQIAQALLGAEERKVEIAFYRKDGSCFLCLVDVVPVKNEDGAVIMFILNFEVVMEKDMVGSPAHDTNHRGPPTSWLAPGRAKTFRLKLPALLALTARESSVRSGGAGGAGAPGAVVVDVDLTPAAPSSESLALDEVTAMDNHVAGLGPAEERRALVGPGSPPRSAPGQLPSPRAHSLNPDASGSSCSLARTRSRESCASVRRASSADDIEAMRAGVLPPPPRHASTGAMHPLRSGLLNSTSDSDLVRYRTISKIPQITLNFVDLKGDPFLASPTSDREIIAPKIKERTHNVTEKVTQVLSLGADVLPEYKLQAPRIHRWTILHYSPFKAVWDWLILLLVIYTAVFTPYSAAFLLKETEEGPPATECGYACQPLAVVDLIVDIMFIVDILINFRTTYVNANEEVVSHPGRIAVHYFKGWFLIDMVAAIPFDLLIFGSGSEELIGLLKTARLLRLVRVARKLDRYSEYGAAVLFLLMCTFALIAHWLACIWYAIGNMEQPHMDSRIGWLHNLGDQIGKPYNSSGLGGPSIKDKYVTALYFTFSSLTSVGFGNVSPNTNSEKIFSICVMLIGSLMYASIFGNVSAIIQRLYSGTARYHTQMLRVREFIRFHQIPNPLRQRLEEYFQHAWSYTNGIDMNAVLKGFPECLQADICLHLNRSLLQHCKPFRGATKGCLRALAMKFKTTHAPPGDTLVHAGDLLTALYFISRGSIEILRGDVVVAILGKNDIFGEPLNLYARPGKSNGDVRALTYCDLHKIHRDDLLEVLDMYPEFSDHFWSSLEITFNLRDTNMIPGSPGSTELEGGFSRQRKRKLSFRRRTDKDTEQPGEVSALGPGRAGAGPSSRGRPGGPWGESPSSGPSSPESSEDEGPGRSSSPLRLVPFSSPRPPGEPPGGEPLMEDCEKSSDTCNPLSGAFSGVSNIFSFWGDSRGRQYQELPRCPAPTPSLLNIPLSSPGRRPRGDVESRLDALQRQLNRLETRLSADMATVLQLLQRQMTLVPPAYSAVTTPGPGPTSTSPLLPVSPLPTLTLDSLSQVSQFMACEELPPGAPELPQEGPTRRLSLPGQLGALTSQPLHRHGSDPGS

| SMILES | hERG current change (%, negative = inhibition) at 1uM [%] |
| --- | --- |
| NS(=O)(=O)c1ccc(CCNC(=O)CNC(=O)c2ccc(Oc3ccccc3)cc2)cc1 | 9.92 |
| COc1cc2c(cc1OC)CN(Cc1ccc(C)s1)CC2 | -3.58 |
| O=C(CSc1cccc2cccnc12)N/N=C/c1cccc(O)c1 | -0.494 |
| CCCCn1nc2cc(C(=O)NCc3ccc(OC(F)(F)F)cc3)ccc2c1OC | -0.644 |
| CS(=O)(=O)c1ccc(-c2nnc(NC(=O)c3cccc(N4C(=O)CCC4=O)c3)o2)cc1 | 5.75 |
| COCCCN(C(=O)Cc1coc2cc(C)c(C)cc12)c1c(N)n(Cc2ccccc2)c(=O)[nH]c1=O | 10.8 |
| CC(=O)c1cccc(N(CC(=O)NC2CCCCC2)C(=O)c2csnn2)c1 | 12 |
| CCCCNC(=S)NC(=O)c1ccccc1Br | 8.34 |
| Cc1nc(CN(C)Cc2nc(Cc3cccc(F)c3)no2)cs1 | -2.24 |
| C#Cc1cccc(NC(=O)c2ccc3c(c2)C(=O)N(Cc2cccnc2)C3=O)c1 | 1.08 |
| O=C(Nc1ccc(F)cc1)Nc1ccccc1C(=O)NCCN1CCNC1=O | 11.5 |
| Cl.O=C(c1ccccc1)N1CCN(CC(O)COCC2CC=CCC2)CC1 (centres unmarked) | -10.6 |
| COCCN(C(=O)CCCC(=O)Nc1ccccn1)C(C(=O)NC1CCCCC1)c1ccc(C)cc1 (centres unmarked) | 10.1 |
| O=CN(CCN(C=O)CN1CCCCC1)CN1CCCCC1 | 15.2 |
| CC(=O)OC1COC(N2CCc3cc([N+](=O)[O-])ccc32)C(OC(C)=O)C1OC(C)=O (centres unmarked) | 10.1 |
| COc1cc(OC)cc(-c2nnc(Nc3nc4c(F)cccc4s3)o2)c1 | 6.96 |
| O=S(=O)(c1cccc2nonc12)N1CCN(c2cccc(Cl)c2)CC1 | 0.583 |
| COc1cc(CC(=O)Nc2nc(-c3ccccc3)c(C(C)=O)s2)cc(OC)c1OC | 15.9 |
| COc1cccc(N(C(=O)CNC(=O)c2ccco2)C(C(=O)NC2CCCCC2)c2ccncc2)c1 (centres unmarked) | 2.43 |
| C/C(=N\Nc1nc2ccccc2[nH]1)c1cc2ccccc2o1 | 4.97 |
| COc1ccc(-c2cc(C(F)(F)F)nc(N3CCN(C)CC3)n2)cc1OC | -12.6 |
| Cc1cccc(NC(=O)CSc2nnc(Cn3cnc4ccccc43)o2)c1 | 4.81 |
| CC(=O)n1cc(C=C2C(=O)NC(=O)NC2=O)c2ccccc21 | 4.9 |
